The supplement of paper PMC9446081
Screen size: about 39,000 compounds; about 220 (0.56%) showed activity. Some of the results follow.

These molecules were tested on Escherichia coli K-12 BW25113 (assay: relative growth (OD600 normalised to plate interquartile mean) (fraction); higher = less growth inhibition, active = 0.2 or less). Conditions: 50 µM; LB; incubation time: overnight (16-24 h).
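Note: static incubation at 37 °C against the wild-type strain, values averaged over two biological replicates.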

| SMILES | relative growth |
| --- | --- |
| CCOC(=O)C(CCc1ccccc1)NC(C)C(=O)N1C(C(=O)O)CC2CCCC21 (centres undefined) | inactive: 1.03 |
| Cc1ccc(S(=O)(=O)N2C[C@H](O)COC[C@@H]3O[C@@H](CC(=O)N[C@@H]4CCN(Cc5ccccc5)C4)CC[C@H]32)cc1 | inactive: 0.964 |
| Cc1ccc(S(=O)(=O)N(C)C[C@H]2Oc3c(NS(=O)(=O)c4cn(C)cn4)cccc3C(=O)N([C@H](C)CO)C[C@@H]2C)cc1 | inactive: 1 |
| C[C@@H]1CN([C@@H](C)CO)C(=O)c2cc(NC(=O)Nc3ccc(F)cc3)ccc2O[C@@H](C)CCCCO[C@H]1CN(C)CC1CC1 | inactive: 0.975 |
| C[C@H]1CN([C@@H](C)CO)C(=O)c2cccc(NC(=O)NC3CCCCC3)c2O[C@@H]1CN(C)S(C)(=O)=O | inactive: 0.988 |
| CC(C)NC(=O)Nc1ccc2c(c1)C(=O)N([C@@H](C)CO)C[C@@H](C)[C@H](CN(C)C(=O)NC1CCCCC1)O2 | inactive: 1.01 |
| Cc1cc(OCc2nnc(SC3CCCC3)n2-c2cccnc2)ccc1-c1ccc(S(C)(=O)=O)cc1 | inactive: 1.04 |
| Cc1ccc(S(=O)(=O)N(C)C[C@H]2Oc3ncc(-c4ccncc4)cc3C(=O)N([C@H](C)CO)C[C@@H]2C)cc1 | inactive: 0.995 |
| C[C@H]1CN([C@@H](C)CO)C(=O)c2cc(C#CCN(C)C)cnc2O[C@H]1CN(C)C(=O)CN1CCOCC1 | inactive: 1.01 |
| C[C@@H]1CCCCO[C@@H](CN(C)C(=O)Nc2cccc3ccccc23)[C@H](C)CN([C@H](C)CO)C(=O)c2cc(NC(=O)CCC(F)(F)F)ccc2O1 | inactive: 1.02 |
| COc1cccc(NC(=O)N(C)C[C@@H]2Oc3ncc(C#Cc4cccnc4)cc3C(=O)N([C@@H](C)CO)C[C@@H]2C)c1 | inactive: 0.976 |
| Cc1ccnc(NC(=O)Cn2cnc3c2c(=O)n(C)c(=O)n3C)n1 | inactive: 0.971 |
| CN(C)CC(=O)N[C@@H]1C=C[C@H](CC(=O)O)O[C@H]1CO | inactive: 0.997 |
| Cc1noc(C)c1NC(=O)N(C)C[C@H]1OCCCC[C@@H](C)Oc2ccc(NC(=O)Cc3ccccc3)cc2C(=O)N([C@H](C)CO)C[C@H]1C | inactive: 0.991 |
| CC(C)NC(=O)Nc1cccc2c1O[C@@H](CN(C)Cc1ccc(Oc3ccccc3)cc1)[C@@H](C)CN([C@@H](C)CO)C2=O | inactive: 0.994 |
| C[C@H](CO)N1C[C@H](C)[C@@H](CN(C)Cc2cccc(C(=O)O)c2)OCc2ccccc2-c2c(n(C)c3ccccc23)C1=O | inactive: 0.997 |
| CCOC(=O)CCCCCC(=O)Nc1ccc2c(c1)C(=O)N([C@H](C)CO)C[C@@H](C)[C@@H](CN(C)S(=O)(=O)c1ccc(Cl)cc1)OCCCC[C@H](C)O2 | inactive: 1.03 |
| CO[C@@H](C)n1cc(Br)c(=O)[nH]c1=O | inactive: 1.02 |
| CNc1ncnc2c1ncn2[C@@H]1O[C@H](CO)[C@@H](O)[C@H]1O | inactive: 0.993 |
| COc1ccccc1N1CCN(c2ncc(C(=O)N3CCN(c4cccc(Cl)c4)CC3)c3ccccc23)CC1 | inactive: 0.994 |
| O=C(C[C@@H]1C=C[C@@H](NC(=O)C2CCC2)[C@H](CO)O1)NCCCN1CCOCC1 | inactive: 0.945 |
| C[C@H](CO)N1C[C@H](C)[C@@H](CN(C)Cc2ccc(-c3ccccc3)cc2)Oc2ncc(-c3cccnc3)cc2C1=O | inactive: 1.02 |

| SMILES | relative growth |
| --- | --- |
| O=S1(=O)CCOCC1 | inactive: 1 |
| CC(C)(C(=O)O)c1ccc([C@@H](O)CCCN2CCC(C(O)(c3ccccc3)c3ccccc3)CC2)cc1 | inactive: 0.996 |
| COc1ccc(NC(=O)N(C)C[C@@H]2OCCCC[C@@H](C)Oc3ccc(NS(=O)(=O)c4ccc(C)cc4)cc3C(=O)N([C@@H](C)CO)C[C@H]2C)cc1 | inactive: 1.03 |
| C[C@H]1CN([C@@H](C)CO)C(=O)c2cc(NC(=O)C3CCCCC3)ccc2O[C@@H]1CN(C)C(=O)Nc1cccc2ccccc12 | inactive: 0.976 |
| C[C@H](CO)N1C[C@H](C)[C@H](CN(C)C(=O)Nc2cccc3ccccc23)Oc2c(NC(=O)Nc3ccc4c(c3)OCO4)cccc2C1=O | inactive: 0.99 |
| C[C@@H]1CCCCO[C@H](CN(C)C(=O)c2ccccc2)[C@@H](C)CN([C@H](C)CO)C(=O)c2cc(NC(=O)Nc3cccc4ccccc34)ccc2O1 | inactive: 1.02 |
| COc1ccccc1-c1cnc2c(c1)C(=O)N([C@@H](C)CO)C[C@@H](C)[C@@H](CN(C)C(=O)c1cccnc1)O2 | inactive: 1 |
| COC(=O)[C@@H]1[C@@H](CO)[C@@H]2Cn3c(cccc3=O)[C@@H]2N1C(=O)C1CC1 | inactive: 0.986 |
| Cn1cnc(S(=O)(=O)N2C[C@@H](O)COC[C@@H]3O[C@H](CC(=O)NC4CCC4)CC[C@H]32)c1 | inactive: 0.964 |
| C[C@H](CO)N1C[C@H](C)[C@H](CN(C)S(C)(=O)=O)Oc2ccc(NS(=O)(=O)c3cn(C)cn3)cc2CC1=O | inactive: 0.961 |
| Cc1cc(C(=O)Nc2cccc3c2O[C@H](CN(C)S(=O)(=O)c2ccc(Cl)cc2)[C@@H](C)CN([C@H](C)CO)C3=O)n(C)n1 | inactive: 1.01 |
| C[C@H](NC(=O)C[C@H]1C[C@H]2c3cc(NC(=O)Nc4ccc(C(F)(F)F)cc4)ccc3O[C@H]2[C@H](CO)O1)c1ccccc1 | inactive: 0.948 |
| C[C@@H]1CCCCO[C@@H](CN(C)CC2CC2)[C@@H](C)CN([C@H](C)CO)C(=O)c2cc(NS(C)(=O)=O)ccc2O1 | inactive: 0.997 |
| Cc1nc2n(c(=O)c1C)[C@H](CC(=O)O)CS2 | inactive: 0.975 |
| C[C@H](CO)N1C[C@H](C)[C@H](CN(C)C(=O)c2ccc3c(c2)OCO3)Oc2ncc(C3=CCCC3)cc2C1=O | inactive: 0.988 |
| OCCN1CCN(CCCN2c3ccccc3Sc3ccc(Cl)cc32)CC1 | inactive: 0.913 |
| NC(=O)CCN1C(=O)c2ccccc2C1=O | inactive: 1.01 |
| CO[C@H]1O[C@H](COS(=O)(=O)O)[C@@H](O[C@@H]2O[C@@H](C(=O)O)[C@@H](OC)[C@H](O)[C@H]2OS(=O)(=O)O)[C@H](O)[C@H]1NS(=O)(=O)O | inactive: 0.982 |
| C[C@H]1CCCCO[C@@H](CN(C)C(=O)NC2CCCCC2)[C@@H](C)CN([C@@H](C)CO)C(=O)c2cc(NC(=O)NC3CCCCC3)ccc2O1 | inactive: 1.01 |
| CCS(=O)(=O)N1C[C@]2(CCN(CC2)Cc2cccc(c2)OC)c2c(n(c3cc(ccc23)OC)C)[C@@H]1CO | inactive: 1.01 |
| Cl.NCCCC(=O)O [gamma-AMINOBUTYRIC ACID HYDROCHLORIDE] | inactive: 0.905 |
| COCCN1C(=O)C[C@@H]2[C@@H]1CCN2S(=O)(=O)c1cn(C)cn1 | inactive: 1.03 |

| SMILES | relative growth |
| --- | --- |
| COCC#Cc1ccc2c(c1)O[C@@H](CN(C)C(=O)C1CCCCC1)[C@@H](C)CN([C@@H](C)CO)S2(=O)=O | inactive: 1.01 |
| C[C@@H]1CCCCO[C@H](CN(C)Cc2ccncc2)[C@@H](C)CN([C@@H](C)CO)C(=O)c2cc(NS(C)(=O)=O)ccc2O1 | inactive: 1 |
| CO[C@@H](CN(C)S(=O)(=O)c1ccc(F)cc1)[C@@H](C)CN([C@H](C)CO)S(=O)(=O)c1cccc(Cl)c1 | inactive: 1.03 |
| C[C@H]1CN([C@@H](C)CO)C(=O)Cc2cc(NS(=O)(=O)c3ccc(F)cc3)ccc2O[C@@H]1CN(C)CC1CC1 | inactive: 1.02 |
| C[C@H]1CN([C@@H](C)CO)C(=O)c2cc(NC(=O)Nc3ccc(F)cc3)ccc2O[C@@H]1CN(C)Cc1ccc(Cl)c(Cl)c1 | inactive: 1.04 |
| C[C@@H]1CN([C@H](C)CO)C(=O)c2cc(NC(=O)Nc3ccc(C(F)(F)F)cc3)ccc2O[C@@H]1CN(C)S(C)(=O)=O | inactive: 0.986 |
| COc1ccccc1C#Cc1cnc2c(c1)C(=O)N([C@@H](C)CO)C[C@@H](C)[C@@H](CN(C)C(=O)CC1CC1)O2 | inactive: 0.988 |
| Cc1noc(C)c1NC(=O)N(C)C[C@H]1Oc2ccc(NS(=O)(=O)c3cn(C)cn3)cc2C(=O)N([C@@H](C)CO)C[C@H]1C | inactive: 1.01 |
| C[C@@H]1CN([C@H](C)CO)C(=O)c2cc(NC(=O)CCCN(C)C)ccc2O[C@@H]1CN(C)C(=O)Nc1ccc(F)cc1 | inactive: 1.01 |
| Nc1ncn(C(=O)c2ccccc2)n1 | inactive: 0.997 |
| C[C@@H]1CN([C@H](C)CO)C(=O)Cc2cc(NS(=O)(=O)c3ccc(Cl)cc3)ccc2O[C@H]1CN(C)Cc1ccc(C(=O)Nc2ccccc2N)cc1 | inactive: 1.01 |
| CCC(=O)N1C[C@]2(C1)CN([C@@H](CO)c1c2c2ccc(cc2n1C)OC)C(=O)CN1CCOCC1 | inactive: 1 |
| COc1ccc2c3c(n(c2c1)C)[C@@H](CO)N(C[C@]13CCN(CC1)C(=O)C1CCOCC1)C(=O)C1CCOCC1 | inactive: 1.01 |
| Nc1ccc(S(=O)(=O)c2ccc(N)cc2)cc1 | inactive: 1.27 |
| CN(C)C(=O)C[C@@H]1CC[C@@H]2[C@H](COC[C@@H](O)CN2S(=O)(=O)c2ccccc2)O1 | inactive: 1.02 |
| COc1ccc(-c2cc(=O)c3c(O)c(OC)c(O[C@H]4O[C@H](CO[C@@H]5O[C@@H](C)[C@H](O)[C@@H](O)[C@H]5O)[C@@H](O)[C@H](O)[C@H]4O)cc3o2)cc1 | inactive: 1.02 |
| C[C@H](CO)N1C[C@H](C)[C@H](CN(C)Cc2ccncc2)Oc2c(NC(=O)c3ccncc3)cccc2C1=O | inactive: 0.954 |
| COc1ccc(NS(=O)(=O)c2ccc(N)cc2)nn1 | inactive: 0.953 |
| Nc1ccc(C(=O)NCC(=O)O)cc1 | inactive: 1.16 |
| CCCNC(=O)Nc1ccc2c(c1)C(=O)N(C)C[C@@H](OC)[C@H](C)CN(C(=O)C1CCOCC1)[C@@H](C)CO2 | inactive: 0.956 |
